{"source": "paper PMC4336329", "about": "(PLoS ONE, 2015)", "note": "In all, about 310,000 compounds went through this assay and about 2,200 (0.71%) showed an effect of 50% or more. Effects have a minus sign here. Some of the results follow.", "data": [{"molecular_target": "human ether-à-go-go-related gene (hERG) potassium channel (human, UniProt Q12809)", "sequence (Q12809 whole entry, looked up)": "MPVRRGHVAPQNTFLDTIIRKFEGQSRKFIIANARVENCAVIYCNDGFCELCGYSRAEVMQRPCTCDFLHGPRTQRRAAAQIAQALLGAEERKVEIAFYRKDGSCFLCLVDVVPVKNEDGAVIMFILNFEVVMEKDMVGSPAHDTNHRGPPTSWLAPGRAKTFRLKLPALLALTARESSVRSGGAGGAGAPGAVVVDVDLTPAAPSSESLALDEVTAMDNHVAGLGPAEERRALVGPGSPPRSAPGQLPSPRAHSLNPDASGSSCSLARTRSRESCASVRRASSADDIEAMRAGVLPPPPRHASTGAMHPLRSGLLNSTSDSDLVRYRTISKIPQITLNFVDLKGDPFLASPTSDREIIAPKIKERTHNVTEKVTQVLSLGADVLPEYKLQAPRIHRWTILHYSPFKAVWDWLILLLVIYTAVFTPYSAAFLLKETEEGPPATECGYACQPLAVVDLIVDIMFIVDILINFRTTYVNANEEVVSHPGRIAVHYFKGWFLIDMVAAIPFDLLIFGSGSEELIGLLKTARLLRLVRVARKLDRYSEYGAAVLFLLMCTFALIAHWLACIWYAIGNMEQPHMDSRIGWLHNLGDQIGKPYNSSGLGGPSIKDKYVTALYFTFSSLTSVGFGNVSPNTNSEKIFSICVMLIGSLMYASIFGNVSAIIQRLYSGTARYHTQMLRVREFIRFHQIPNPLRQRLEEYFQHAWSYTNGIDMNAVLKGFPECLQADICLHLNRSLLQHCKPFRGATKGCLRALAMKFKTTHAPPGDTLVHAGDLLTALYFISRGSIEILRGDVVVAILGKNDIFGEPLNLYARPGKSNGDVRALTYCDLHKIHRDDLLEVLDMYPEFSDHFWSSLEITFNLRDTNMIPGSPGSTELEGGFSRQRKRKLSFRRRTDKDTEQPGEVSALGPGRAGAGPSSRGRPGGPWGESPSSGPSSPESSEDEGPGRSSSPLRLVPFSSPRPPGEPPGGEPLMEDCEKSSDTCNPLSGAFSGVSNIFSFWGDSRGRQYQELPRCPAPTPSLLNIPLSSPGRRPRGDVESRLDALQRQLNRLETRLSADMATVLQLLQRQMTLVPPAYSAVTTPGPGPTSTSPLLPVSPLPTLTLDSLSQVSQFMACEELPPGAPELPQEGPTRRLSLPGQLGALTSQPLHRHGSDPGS", "assay": "primary screen, population patch clamp on CHO cells stably expressing hERG", "units": {"hERG current change (%, negative = inhibition) at 1uM": "%"}, "values": [{"smiles": "Cc1ccc(-c2nnc(SCC(=O)NNC(=O)COc3cccc(C)c3)n2C)cc1", "hERG current change (%, negative = inhibition) at 1uM": 5.22}, {"smiles": "CC12CCC(=O)N1C(C(=O)NNC(=O)c1ccc(F)cc1)CS2", "note": "(centres unmarked)", "hERG current change (%, negative = inhibition) at 1uM": 22}, {"smiles": "N#CCSc1ncccc1-c1nc2ccccc2[nH]1", "hERG current change (%, negative = inhibition) at 1uM": 12.2}, {"smiles": "Cc1oc(-c2ccccc2Cl)[n+]([O-])c1C.Cl", "hERG current change (%, negative = inhibition) at 1uM": 5.12}, {"smiles": "Cc1nnc(SCC(=O)NC(C)c2ccccc2)[nH]c1=O", "note": "(centres unmarked)", "hERG current change (%, negative = inhibition) at 1uM": 8.14}, {"smiles": "COC(=O)c1ccc(N=Cc2c(C(F)(F)F)[nH]n(C)c2=O)cc1", "hERG current change (%, negative = inhibition) at 1uM": 5.16}, {"smiles": "Cc1c(NP(=O)(C(C)(C)C)C(C)(C)C)c(=O)n(-c2ccccc2)n1C", "hERG current change (%, negative = inhibition) at 1uM": 17.8}, {"smiles": "Cc1cc2c(C)nc(N/N=C/c3ccccc3)nc2o1", "hERG current change (%, negative = inhibition) at 1uM": 9.09}, {"smiles": "CCOC(=O)c1ccc(S(=O)(=O)N2CCC(C(=O)OCC)CC2)cc1", "hERG current change (%, negative = inhibition) at 1uM": -1.07}, {"smiles": "CCc1ccc2nc(N=C(N)N)nc(C)c2c1", "hERG current change (%, negative = inhibition) at 1uM": 10.6}, {"smiles": "O=C1[C@@H]2[C@@H]3C[C@@H]([C@H]4ON=C(c5ccc(OCc6ccccc6)cc5)[C@@H]34)[C@@H]2C(=O)N1c1ccc2c(c1)OCO2", "hERG current change (%, negative = inhibition) at 1uM": 9.21}, {"smiles": "CCCN(CC(=O)Nc1ccc(F)c(F)c1F)C(=O)c1ccc(=O)n(Cc2ccccc2)n1", "hERG current change (%, negative = inhibition) at 1uM": -1.8}, {"smiles": "CCCCC(=O)Nc1cc(NC(=O)CCCC)cc(C(=O)O)c1", "hERG current change (%, negative = inhibition) at 1uM": 16.3}, {"smiles": "O=C(c1ccco1)N1CCN(C(=O)c2cn(-c3ccccc3)nc2-c2ccccc2)CC1", "hERG current change (%, negative = inhibition) at 1uM": -37}, {"smiles": "COc1ccccc1N(CC(=O)NCc1ccc2c(c1)OCO2)C(=O)CCC(=O)Nc1nccs1", "hERG current change (%, negative = inhibition) at 1uM": 14}, {"smiles": "O=C(CNC(=O)c1ccc2c(c1)OCO2)Nc1ncccc1O", "hERG current change (%, negative = inhibition) at 1uM": 1.22}, {"smiles": "CCCCn1c(N)c(N(CCOC)C(=O)c2ccco2)c(=O)[nH]c1=O", "hERG current change (%, negative = inhibition) at 1uM": 6.62}, {"smiles": "CCOc1ccc(Br)cc1S(=O)(=O)NCCN1CCCC1.Cl", "hERG current change (%, negative = inhibition) at 1uM": 11.3}, {"smiles": "CCOc1ccc(S(=O)(=O)Nc2cccc(C(=O)NCC3CCCO3)c2)cc1", "note": "(centres unmarked)", "hERG current change (%, negative = inhibition) at 1uM": 13.5}, {"smiles": "COC(=O)c1ccccc1NC(=O)CCn1c(=O)oc2ccccc21", "hERG current change (%, negative = inhibition) at 1uM": 8.15}, {"smiles": "O=C(CN(C(=O)CNC(=O)c1cccs1)c1cccc(F)c1)NC1CCCC1", "hERG current change (%, negative = inhibition) at 1uM": -1.64}, {"smiles": "COc1ccc(CN(C(=O)c2oc3ccc(F)cc3c2C)C2CCS(=O)(=O)C2)cc1", "note": "(centres unmarked)", "hERG current change (%, negative = inhibition) at 1uM": 7.32}, {"smiles": "COc1ccccc1CC(=O)c1ccc(OCc2ccccc2)cc1", "hERG current change (%, negative = inhibition) at 1uM": 12}, {"smiles": "COc1ccc(/C=C/c2cc(C(F)(F)F)[nH]c(=O)n2)cc1OC", "hERG current change (%, negative = inhibition) at 1uM": 5.56}, {"smiles": "CCCc1c(C(=O)N/N=C/c2ccc(OC)c(OCc3ccccc3)c2)nnn1-c1nonc1N", "hERG current change (%, negative = inhibition) at 1uM": 8.55}, {"smiles": "O=C(c1ccccc1Cl)N1CCC(c2nc3c(nnn3Cc3ccco3)c(=O)[nH]2)CC1", "hERG current change (%, negative = inhibition) at 1uM": 12.1}, {"smiles": "Cc1cc(NC(=O)CSc2n[nH]c(CC(C)C)n2)no1", "hERG current change (%, negative = inhibition) at 1uM": 5.61}, {"smiles": "O=C(CSc1nc2c(c(=O)n1-c1ccc(F)cc1)SCC2)Nc1ccc2c(c1)OCO2", "hERG current change (%, negative = inhibition) at 1uM": 13.1}, {"smiles": "Cc1ccc(Nc2nc(N)c(C#N)c(CC#N)c2C#N)cc1", "hERG current change (%, negative = inhibition) at 1uM": 6.06}, {"smiles": "CC[C@]12CCCN3CCc4c(n(c5ccccc45)C(=O)C1)[C@@H]32", "hERG current change (%, negative = inhibition) at 1uM": -70.5}, {"smiles": "O=[N+]([O-])c1ccccc1N(CC1CO1)S(=O)(=O)c1ccccc1", "note": "(centres unmarked)", "hERG current change (%, negative = inhibition) at 1uM": 10.1}, {"smiles": "O=C(CNC(=O)c1cccs1)OCC(=O)c1ccccc1Cl", "hERG current change (%, negative = inhibition) at 1uM": 12.9}, {"smiles": "O=C(c1ccc2c(c1)OCCO2)C1CCN(C(=O)Nc2ccc(F)cc2)CC1", "hERG current change (%, negative = inhibition) at 1uM": 10.2}, {"smiles": "COCCN(C(=O)c1ccccc1Oc1ccccc1)c1c(N)n(CC(C)C)c(=O)[nH]c1=O", "hERG current change (%, negative = inhibition) at 1uM": 10.4}, {"smiles": "O=C(Nc1cccc(C(=O)N2CCOCC2)c1)c1ncn[nH]1", "hERG current change (%, negative = inhibition) at 1uM": 8.2}, {"smiles": "COc1cc2ccccc2cc1C(=O)OCC(=O)N(CC(C)C)c1c(N)n(Cc2ccccc2)c(=O)[nH]c1=O", "hERG current change (%, negative = inhibition) at 1uM": 5.83}, {"smiles": "CSC1=N/C(=C\\c2ccc3c(c2)OCO3)C(=O)S1", "hERG current change (%, negative = inhibition) at 1uM": 8.48}, {"smiles": "CCC/C(O)=C1\\C(=O)CC(c2ccccc2)CC1=NC(C)C(=O)O", "note": "(centres unmarked)", "hERG current change (%, negative = inhibition) at 1uM": 16.9}, {"smiles": "CC(C)(NS(=O)(=O)OCC(Cl)(Cl)Cl)c1ccccc1", "hERG current change (%, negative = inhibition) at 1uM": 4.67}, {"smiles": "COC(=O)C1=C(C)N(CCc2cc(OC)c(OC)c(OC)c2)C(=O)N[C@H]1c1ccc(Br)cc1", "hERG current change (%, negative = inhibition) at 1uM": -0.0799}, {"smiles": "COc1ccc(N2C(=O)/C(=C/c3cccnc3)NC2=S)cc1", "hERG current change (%, negative = inhibition) at 1uM": 5.95}, {"smiles": "COc1cc(C(=O)NNC(=O)c2cccn2C)cc(OC)c1OC", "hERG current change (%, negative = inhibition) at 1uM": 1.09}, {"smiles": "CC1CN(S(=O)(=O)c2ccc(C(=O)Nc3nc(-c4cc5ccccc5o4)cs3)cc2)CC(C)O1", "note": "(centres unmarked)", "hERG current change (%, negative = inhibition) at 1uM": 10.2}, {"smiles": "Cc1ccccc1OCCOC(=O)c1ccc(S(=O)(=O)N2CCCC2)cc1", "hERG current change (%, negative = inhibition) at 1uM": 12}]}]}
